Drawing on the antibiotic and cytotoxicity screens of Wong et al. (2023), this text covers cytotoxicity call and growth inhibition call for 40 compounds.

Assay [1] concerns HSkMC (human skeletal muscle cells). The experiment in a line: cytotoxicity call (relative viability < 0.9). The settings on record: 10 µM.
Assay [2] concerns HepG2. The assay can be described thus: cytotoxicity call (relative viability < 0.9). To be noted: 10 µM.
For assay [3], the system named is S. aureus RN4220. The experiment in a line: growth inhibition call (relative growth <= 0.2). To be noted: 50 µM.

This is one part of the list.

On to `CN(C)CCCNC(=O)C[C@H]1CC[C@@H]2[C@H](COc3ccc(NC(=O)c4ccccc4F)cc3C(=O)N2C)O1`, for which the cytotoxicity call in assay [1] and in assay [2] was “inactive” throughout. In addition, the growth inhibition call in assay [3] was “inactive”.
With `COc1ccc(CN(C)C[C@H]2Oc3c(NC(=O)c4ccc(-c5nccs5)cc4)cccc3C(=O)N([C@H](C)CO)C[C@H]2C)cc1`, the cytotoxicity call in assay [1] and in assay [2] was “inactive” in each case. Further, in assay [3], the growth inhibition call was “inactive”.
Take `COc1ccc(S(=O)(=O)N(C)C[C@H]2Oc3ccc(NC(=O)CCCN(C)C)cc3CC(=O)N([C@@H](C)CO)C[C@H]2C)cc1`: the cytotoxicity call in assay [1] and in assay [2] was “inactive” each time. For the same compound, the growth inhibition call in assay [3] is “inactive”.
As to `C[C@@H]1CN([C@@H](C)CO)C(=O)c2cccc(NC(=O)C3CCCCC3)c2O[C@H]1CN(C)Cc1ccc(C(=O)Nc2ccccc2N)cc1`, the cytotoxicity call in assay [1] and in assay [2] was “inactive” in each case. Further, the growth inhibition call in assay [3] was “inactive”.
As for `C[C@@H]1CCCCO[C@H](CN(C)Cc2ccccc2)[C@H](C)CN([C@@H](C)CO)C(=O)c2cc(NC(=O)NC3CCCCC3)ccc2O1`, the cytotoxicity call in assay [1] was “inactive”. Moreover, the cytotoxicity call in assay [2] is “active”. Moreover, in assay [3], the growth inhibition call was “inactive”.
For the compound `CN(C)CCCCNC(=O)[C@H]1C[C@H]2C(=O)N[C@@H](CCCC[N+](C)(C)C)C(=O)N2[C@H]1c1cccc(OCCO)c1`, the cytotoxicity call in assay [1] and in assay [2] was “inactive” in each case. For the same compound, the growth inhibition call in assay [3] is “inactive”.
As for `COc1ccc(S(=O)(=O)N(C)C[C@@H]2Oc3c(NC(=O)C4CC4)cccc3C(=O)N([C@H](C)CO)C[C@@H]2C)cc1`, the cytotoxicity call in assay [1] and in assay [2] was “inactive” in each case. The growth inhibition call in assay [3] was “inactive”.
On to `C[C@H](CO)N1C[C@H](C)[C@H](CN(C)CC2CC2)Oc2ccc(NC(=O)CCN3CCOCC3)cc2CC1=O`, for which the cytotoxicity call in assay [1] and in assay [2] was “inactive” in each case. In assay [3], the growth inhibition call is “inactive”.
As to `Cc1ccc(S(=O)(=O)N(C)C[C@H]2OCCCC[C@H](C)Oc3ccc(NC(=O)Nc4ccc(F)cc4)cc3C(=O)N([C@H](C)CO)C[C@@H]2C)cc1`, the cytotoxicity call in assay [1] and in assay [2] was “inactive” in each case. Also, the growth inhibition call in assay [3] is “inactive”.
For the compound `COc1ccc(NC(=O)N(C)C[C@@H]2Oc3ncc(Br)cc3C(=O)N([C@@H](C)CO)C[C@@H]2C)cc1`, the cytotoxicity call in assay [1] and in assay [2] was “inactive” throughout. Besides, the growth inhibition call in assay [3] is “inactive”.
As to `N=C(N=C(N)N)Nc1cc(-c2cccs2)n[nH]1`, the cytotoxicity call in assay [1] and in assay [2] was “inactive” throughout. In assay [3], the growth inhibition call is “inactive”.
Regarding `C[C@H](CO)N1C[C@H](C)[C@@H](CN(C)C(=O)c2ccccn2)Oc2cc(C#Cc3ccc(F)cc3)ccc2S1(=O)=O`, the cytotoxicity call in assay [1] and in assay [2] was “inactive” each time. In addition, the growth inhibition call in assay [3] is “inactive”.
Turning to `C[C@@H]1CCCCO[C@@H](CN(C)C(=O)Nc2cccc3ccccc23)[C@H](C)CN([C@H](C)CO)C(=O)c2cc(NC(=O)c3ccccc3)ccc2O1`, the cytotoxicity call in assay [1] and in assay [2] was “inactive” each time. Further, the growth inhibition call in assay [3] was “inactive”.
In the case of `Cc1ccc(S(=O)(=O)N(C)C[C@@H]2OCCCC[C@H](C)Oc3ccc(NS(=O)(=O)c4ccc(F)cc4)cc3C(=O)N([C@@H](C)CO)C[C@H]2C)cc1`, the cytotoxicity call in assay [1] was “inactive”. In assay [2], the cytotoxicity call is “active”. In assay [3], the growth inhibition call is “inactive”.
For the compound `COc1ccc2c3c1OC1CC(O)C=CC31CCN(C)C2` (stereo not given), the cytotoxicity call in assay [1] and in assay [2] was “inactive” throughout. In addition, the growth inhibition call in assay [3] was “inactive”.
Turning to `Cc1ccc(F)cc1NC(=O)[C@@H](C)N`, the cytotoxicity call in assay [1] and in assay [2] was “inactive” throughout. For the same compound, in assay [3], the growth inhibition call was “inactive”.
In the case of `C[C@H](CO)N1C[C@H](C)[C@H](CN(C)Cc2ccc(-c3ccccc3)cc2)Oc2ccc(NC(=O)C3CCCCC3)cc2C1=O`, the cytotoxicity call in assay [1] was “inactive”. Also, in assay [2], the cytotoxicity call was “active”. In assay [3], the growth inhibition call was “inactive”.
Turning to `C[C@@H]1CCCCO[C@H](CN(C)C(=O)Cc2ccccc2)[C@H](C)CN([C@@H](C)CO)C(=O)c2cc(NC(=O)c3ccccc3)ccc2O1`, the cytotoxicity call in assay [1] and in assay [2] was “inactive” throughout. Further, the growth inhibition call in assay [3] is “inactive”.
With `C[C@@H]1CCCCO[C@H](CN(C)C(=O)Nc2ccc3c(c2)OCO3)[C@@H](C)CN([C@H](C)CO)C(=O)c2cc(NS(=O)(=O)c3ccc(Cl)cc3)ccc2O1`, the cytotoxicity call in assay [1] and in assay [2] was “inactive” in each case. The growth inhibition call in assay [3] is “inactive”.
For `O=C(C[C@H]1CC[C@H]2[C@@H](COC[C@H](O)CN2S(=O)(=O)c2ccc(F)cc2)O1)N[C@@H]1CCN(Cc2ccccc2)C1`, the cytotoxicity call in assay [1] and in assay [2] was “inactive” throughout. Moreover, the growth inhibition call in assay [3] is “inactive”.
Consider `Cc1noc(C)c1S(=O)(=O)Nc1ccc2c(c1)CC(=O)N([C@H](C)CO)C[C@H](C)[C@H](CN(C)Cc1ccccc1)O2`, for which the cytotoxicity call in assay [1] and in assay [2] was “inactive” throughout. For the same compound, in assay [3], the growth inhibition call was “inactive”.
`C[C@H](CO)N1C[C@H](C)[C@@H](CN(C)C(=O)Cc2ccccn2)Oc2cc(C#C[C@@H](C)O)ccc2S1(=O)=O`: the cytotoxicity call in assay [1] and in assay [2] was “inactive” in each case. Besides, the growth inhibition call in assay [3] is “inactive”.
As for `C[C@@H]1CCCCO[C@H](CN(C)Cc2ccc(C(=O)O)cc2)[C@@H](C)CN([C@H](C)CO)C(=O)c2cc(NS(=O)(=O)c3ccc(Cl)cc3)ccc2O1`, the cytotoxicity call in assay [1] and in assay [2] was “inactive” throughout. In assay [3], the growth inhibition call is “inactive”.
In the case of `Cc1nc2ccccc2n1Cc1ccc(Cl)cc1`, the cytotoxicity call in assay [1] is “inactive”. Besides, the cytotoxicity call in assay [2] is “active”. Also, the growth inhibition call in assay [3] is “inactive”.
In the case of `COc1ccc(NC(=O)N(C)C[C@@H]2Oc3ncc(C#CC(C)C)cc3C(=O)N([C@@H](C)CO)C[C@H]2C)cc1`, the cytotoxicity call in assay [1] and in assay [2] was “inactive” in each case. Besides, in assay [3], the growth inhibition call is “inactive”.
Turning to `CC(C)NC(=O)N(C)C[C@@H]1Oc2ccc(NC(=O)Nc3ccc4c(c3)OCO4)cc2CC(=O)N([C@@H](C)CO)C[C@H]1C`, the cytotoxicity call in assay [1] and in assay [2] was “inactive” throughout. Also, the growth inhibition call in assay [3] was “inactive”.
On to `CCC(=O)N[C@@H]1C=C[C@H](CC(=O)OC)O[C@H]1CO`, for which the cytotoxicity call in assay [1] and in assay [2] was “inactive” throughout. Further, the growth inhibition call in assay [3] is “inactive”.
With `C[C@H]1CN([C@@H](C)CO)C(=O)c2cc(C#CC3(O)CCCC3)cnc2O[C@H]1CN(C)C(=O)C1CCCCC1`, the cytotoxicity call in assay [1] and in assay [2] was “inactive” in each case. The growth inhibition call in assay [3] was “inactive”.
As for `O=C(O)CNC(=O)[C@H]1COc2ccccc2O1`, the cytotoxicity call in assay [1] and in assay [2] was “inactive” throughout. In assay [3], the growth inhibition call is “inactive”.
For `C[C@@H]1CN([C@@H](C)CO)C(=O)c2cccc(NC(=O)c3ccc(-c4nccs4)cc3)c2O[C@H]1CN(C)C(=O)Nc1cccc2ccccc12`, the cytotoxicity call in assay [1] and in assay [2] was “inactive” each time. In addition, the growth inhibition call in assay [3] was “inactive”.
`C[C@@H]1CN([C@@H](C)CO)C(=O)c2cccc(NC(=O)c3ccncc3)c2O[C@H]1CN(C)C(=O)Nc1ccc2c(c1)OCO2`: the cytotoxicity call in assay [1] and in assay [2] was “inactive” throughout. Further, the growth inhibition call in assay [3] is “inactive”.
Consider `O=C(C[C@H]1CC[C@H](NC(=O)CN2CCOCC2)[C@@H](CO)O1)NCc1cccc(F)c1`, for which the cytotoxicity call in assay [1] and in assay [2] was “inactive” in each case. Besides, in assay [3], the growth inhibition call was “inactive”.
Take `C[C@@H]1CCCCO[C@@H](CN(C)C(=O)Nc2ccccc2)[C@H](C)CN([C@H](C)CO)C(=O)c2cc(NC(=O)Nc3ccccc3)ccc2O1`: the cytotoxicity call in assay [1] and in assay [2] was “inactive” in each case. In assay [3], the growth inhibition call was “inactive”.
Turning to `O=C(/C=C/c1ccc(O)c(O)c1)O[C@@H]1C[C@@](O)(C(=O)O)C[C@@H](O)[C@@H]1O`, the cytotoxicity call in assay [1] was “inactive”. In addition, the cytotoxicity call in assay [2] was “active”. Also, in assay [3], the growth inhibition call is “inactive”.
In the case of `C[C@@H]1CN([C@H](C)CO)C(=O)c2cc(NC(=O)C3CCCCC3)ccc2O[C@@H](C)CCCCO[C@@H]1CN(C)C(=O)NC1CCCCC1`, the cytotoxicity call in assay [1] and in assay [2] was “inactive” in each case. Further, in assay [3], the growth inhibition call was “inactive”.
In the case of `Cn1cnc(S(=O)(=O)N[C@H]2C=C[C@H](CC(=O)N3CCN(c4ccccc4)CC3)O[C@H]2CO)c1`, the cytotoxicity call in assay [1] and in assay [2] was “inactive” in each case. For the same compound, in assay [3], the growth inhibition call is “inactive”.
Consider `CCOC(=O)Nc1ccc(C)s1`, for which the cytotoxicity call in assay [1] and in assay [2] was “inactive” throughout. Besides, the growth inhibition call in assay [3] is “inactive”.
Consider `C[C@@H]1CCCCO[C@@H](CN(C)C(=O)Nc2cccc3ccccc23)[C@@H](C)CN([C@H](C)CO)C(=O)c2cc(NC(=O)Nc3ccc(F)cc3)ccc2O1`, for which the cytotoxicity call in assay [1] and in assay [2] was “inactive” each time. For the same compound, the growth inhibition call in assay [3] is “inactive”.
As for `C[C@H](CO)N1C[C@H](C)[C@@H](CN(C)CC2CC2)Oc2ccc(NS(=O)(=O)c3cccs3)cc2CC1=O`, the cytotoxicity call in assay [1] and in assay [2] was “inactive” each time. Also, the growth inhibition call in assay [3] is “inactive”.
For the compound `C[C@@H]1CN([C@@H](C)CO)C(=O)c2cc(NC(=O)Cc3ccccc3)ccc2O[C@H]1CN(C)C(=O)Nc1cccc2ccccc12`, the cytotoxicity call in assay [1] and in assay [2] was “inactive” throughout. In addition, the growth inhibition call in assay [3] was “inactive”.
